Experimental findings from PubChem BioAssay AID488969 (Vanderbilt High Throughput Screening Facility, 2010) are described below.

Whole data set: some 110,000 compounds, median “z-score” near -0.1, cut for the highest 2% near 2. The list shows a part of the results.

This experiment concerns the target Metabotropic glutamate receptor 8 (Rattus norvegicus) (UniProt P70579). The experiment is described as follows: mGluR8 Gi/Go-coupled signaling modulation – cell-based, rat, thallium flux, HTS, primary screen (AID 488969). Particulars: HEK293 rat mGluR8, GIRK (G protein-gated inwardly rectifying potassium channel) thallium flux, FluoZin2; at 10 µM; stronger effect = higher value; submaximal glutamate (EC20) added with thallium.
UniProt P70579, sequence (P70579 whole entry, looked up): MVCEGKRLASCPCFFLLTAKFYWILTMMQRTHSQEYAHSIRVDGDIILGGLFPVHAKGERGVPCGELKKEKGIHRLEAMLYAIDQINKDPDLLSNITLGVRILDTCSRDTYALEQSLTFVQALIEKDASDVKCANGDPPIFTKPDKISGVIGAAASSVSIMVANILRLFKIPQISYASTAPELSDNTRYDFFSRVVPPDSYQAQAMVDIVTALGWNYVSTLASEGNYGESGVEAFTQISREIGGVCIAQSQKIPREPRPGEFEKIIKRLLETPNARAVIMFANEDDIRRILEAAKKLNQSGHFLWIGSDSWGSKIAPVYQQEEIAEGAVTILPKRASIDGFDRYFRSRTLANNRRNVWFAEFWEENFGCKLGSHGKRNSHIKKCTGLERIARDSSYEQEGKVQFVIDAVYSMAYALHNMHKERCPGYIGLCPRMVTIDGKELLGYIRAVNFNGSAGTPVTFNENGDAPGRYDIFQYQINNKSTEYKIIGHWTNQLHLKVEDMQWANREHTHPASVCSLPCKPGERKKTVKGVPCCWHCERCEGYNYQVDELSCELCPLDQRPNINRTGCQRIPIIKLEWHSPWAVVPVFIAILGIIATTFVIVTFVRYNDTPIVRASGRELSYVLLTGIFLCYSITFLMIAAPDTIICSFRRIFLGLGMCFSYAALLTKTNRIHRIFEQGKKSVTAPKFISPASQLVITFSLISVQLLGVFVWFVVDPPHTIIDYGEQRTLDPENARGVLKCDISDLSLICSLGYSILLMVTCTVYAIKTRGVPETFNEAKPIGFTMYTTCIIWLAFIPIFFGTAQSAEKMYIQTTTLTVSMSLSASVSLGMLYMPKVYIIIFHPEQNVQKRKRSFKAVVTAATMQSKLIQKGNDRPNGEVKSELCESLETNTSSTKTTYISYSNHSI
`C(=N\N(c1ccccc1)c1ccccc1)/c1ccc2c(c1)OCO2` displayed a z-score of 0.209.

Take `S=C(Nc1ccc(Cl)cc1Cl)Nn1cnnc1`: the z-score is -0.274.

On to `O=C(NCCC1=CCCCC1)C(=O)NCC(c1ccco1)N1CCN(c2ccccc2F)CC1` (stereo not given), for which the z-score came out at 0.333.

`O=S(=O)(Nc1ccc2c(c1)nc1n2CCN(Cc2ccccc2)C1)c1ccccc1` gave a z-score of -0.809.

`O=C1c2cccnc2C(=O)N1Cc1ccc(Cl)cc1` registered a z-score of -0.0604.

As to `CC(=O)Oc1c(S(=O)(=O)c2ccccc2)c(C)nn1C(C)(C)C`, the z-score is -0.232.

For the compound `CCCOc1ccc([C@@H]2C3CN(C(=O)OCC)CC=C3C(C#N)=C(N)C2(C#N)C#N)cc1OC` (stereo not given in full), the z-score was -0.338.

`COC(=O)c1c(C)nc2c(c(SC)nn2-c2ccccc2)c1N` displayed a z-score of -0.154.

`CC(C)CC(OC(=O)c1nsc(Cl)c1Cl)C(=O)NCc1cccs1` (stereo not given): the z-score was -0.428.

`COc1ccc(N(CC(=O)NCCSc2ccccn2)S(C)(=O)=O)cc1Cl` yielded a z-score of -0.125.

`O=C(Cc1cccs1)Nc1ccc(S(=O)(=O)Nc2ncccn2)cc1`: the z-score was -0.256.

`CC1=C(C(=O)OC(C)C)C(c2ccco2)NC(=O)N1` (stereo not given): the z-score is -0.0141.

On to `CCOc1ccc(NC(=O)CS(=O)(=O)c2cn(C)c3ccccc23)cc1`, for which the z-score is -0.209.

On to `CC(=O)N1CCC2(CC1)CC(=O)c1cc(OCC(=O)NCc3ccco3)ccc1O2`, for which the z-score came to 0.341.

In the case of `Cc1ccc(C(C(=O)NC2CCCCC2)N(C(=O)c2csnn2)C2CCCC2)o1` (stereo not given), the z-score is -0.708.

`O=C(NCCCCc1ccccc1)C1CC(c2cccc([N+](=O)[O-])c2)=NO1` (stereo not given) yielded a z-score of -0.359.

`Cc1cc(-c2csc(N)n2)c(C)n1CCC(C)C` had a z-score of 0.22.

Regarding `Cc1cc2oc(=O)cc(CSc3nc(N)cc(N)n3)c2cc1C`, the z-score was -0.332.

In turn, `CNCc1ccccc1OCC(=O)Nc1ccccc1` displayed a z-score of 0.00673.

`O=c1oc(-c2ccccc2NS(=O)(=O)c2ccccc2)nc2ccccc12` gave a z-score of -0.203.

`O=C(NCCC1=CCCCC1)C1CCCN(S(=O)(=O)c2cccc3cccnc23)C1` (stereo not given) displayed a z-score of 0.877.

As to `CCCN(C(=O)c1ccco1)c1nnc(-c2ccncc2)s1`, the z-score is -0.618.

Take `CN(C(=O)CSc1nc(-c2ccccc2)cn1N)C(c1ccccc1)c1ccccc1`: the z-score is -0.238.

In the case of `CC(CNC(=O)COc1ccccc1)OC(=O)Nc1ccc(Cl)c(Cl)c1` (stereo not given), the z-score is -0.0649.

In turn, `O=C(Nc1nccs1)c1cccc(S(=O)(=O)N2CCCCC2)c1` came in with a z-score of -0.0477.

On to `COc1ccc(OC)c(NC(=O)NC2(C(F)(F)F)Oc3ccccc3O2)c1`, for which the z-score is -0.0406.

`O=C(CSc1ncc(-c2ccccc2)nn1)NCc1ccco1` came in with a z-score of 1.16.

Compound `COc1ccc(NC(=O)CSc2nnc(-c3ccoc3C)n2CC2CCCO2)cc1` (stereo not given) yielded a z-score of 0.797.

`Cc1ccc(NC(=O)CCSc2nnc3ccccn23)cc1` displayed a z-score of 0.176.

Compound `COc1ccc(N2CCN(CC(=O)N3N=CCC3c3ccccc3)CC2)cc1` (stereo not given) yielded a z-score of -0.137.
